Assay results from PubChem BioAssay (NCI).
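All cell lines were grown in 96-well plates and treated with compound for 48 hours. GI50 is the concentration that inhibits growth by half.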 Not every entry of the source has a single result; some have several. The list is limited to them. An entry can have further records. For some of these results: The tests behind the records often covered other concentration ranges, not given here; a value can be the end of its range. For some of these results: Values given together are repeats (runs, samples, wells, individuals or studies). Records carry a tag for their origin. Letters hold for one entry only.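 Definition used: TGI = concentration required for complete inhibition of growth.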

What was measured:
Assay in all cases: NCI-60 cell line screen, 48 h
NCI-H23 lung = tested on: NCI-H23 lung
HOP-62 NSCLC = tested on: HOP-62 NSCLC
DU-145 prostate = tested on: DU-145 prostate
T-47D breast = tested on: T-47D breast
A549 NSCLC = tested on: A549 NSCLC
HCT-116 colon = tested on: HCT-116 colon
MOLT-4 leukemia = tested on: MOLT-4 leukemia
HT29 colon = tested on: HT29 colon
RXF 393 renal = tested on: RXF 393 renal
A498 renal = tested on: A498 renal
MCF7 breast = tested on: MCF7 breast
OVCAR-8 ovarian = tested on: OVCAR-8 ovarian
CCRF-CEM leukemia = tested on: CCRF-CEM leukemia
HL-60(TB) leukemia = tested on: HL-60(TB) leukemia
NCI/ADR-RES ovarian = tested on: NCI/ADR-RES ovarian
ACHN renal = tested on: ACHN renal
K-562 leukemia = tested on: K-562 leukemia
SR leukemia = tested on: SR leukemia
UO-31 renal = tested on: UO-31 renal
OVCAR-3 ovarian = tested on: OVCAR-3 ovarian
NCI-H226 lung = tested on: NCI-H226 lung

`Nc1cc2c(c3ccccc13)C(CCl)CN2C(=O)c1cc2cc(NC(=O)c3cc4ccccc4o3)ccc2[nH]1` (stereo not drawn) was tested, and the GI50 (NCI-H23 lung) was 0.786 nM and > 110 nM, the GI50 (HOP-62 NSCLC) was 1.32 nM and > 110 nM and the GI50 (DU-145 prostate) was 0.238 nM and > 110 nM. The TGI (T-47D breast) was 237 nM and 35 µM.
In the case of `COc1cccc(Nc2ncnn3ccc(CN4CC[C@@H](N)[C@H](O)C4)c23)c1`, the GI50 (T-47D breast) is reported as 2.88 µM [sample A, mean of 2 tests] and 149 nM [sample B, mean of 2 tests].
`CC[C@@]1(O)C(=O)OCc2c1cc1n(c2=O)Cc2cc3c(OC)cccc3nc2-1` was tested, and the GI50 (A549 NSCLC) was 7.42 nM [1 test] and 262 nM [mean of 3 tests], the GI50 (HCT-116 colon) was 21.5 nM and > 100 µM and the TGI (MOLT-4 leukemia) was 30.6 nM and 2.72 µM. For the same molecule, the GI50 (HT29 colon) was 67 nM [1 test] and 847 nM [mean of 3 tests], the TGI (HOP-62 NSCLC) was 56.2 nM [1 test] and 641 nM [mean of 3 tests] and the TGI (RXF 393 renal) was 21.3 nM and 1.95 µM. The TGI (A498 renal) was 91.7 nM and 2.06 µM, the GI50 (MCF7 breast) was 5.41 nM and > 100 µM and the GI50 (OVCAR-8 ovarian) was 7.67 nM [1 test] and 312 nM [mean of 3 tests]. The TGI (CCRF-CEM leukemia) was 5.05 nM and 454 nM, the TGI (HL-60(TB) leukemia) was 15.4 nM and 245 nM and the GI50 (NCI/ADR-RES ovarian) was 7.09 nM and > 100 µM. For the same molecule, the TGI (ACHN renal) was 31 nM [1 test] and 571 nM [mean of 3 tests].
`CC[n+]1c(/C=C/c2ccc(N3CCCC3)cc2)cccc1/C=C/c1ccc(N2CCCC2)cc1` was tested, and the TGI (MOLT-4 leukemia) was 613 nM and > 100 µM, the GI50 (K-562 leukemia) was 31.7 nM and 621 nM and the GI50 (SR leukemia) was 20.3 nM and 408 nM. For the same molecule, the TGI (SR leukemia) was 751 nM and > 100 µM and the TGI (HL-60(TB) leukemia) was 336 nM and > 100 µM.
For `COC(=O)CC12CC(NC(=O)c3csc([C@@H](C[C@H](C(C)C)N(C)C(=O)[C@@H](NC(=O)[C@H]4CCCCN4C)C(C)C)OC(C)=O)n3)(C1)C2`, the GI50 (UO-31 renal) was 31.4 nM and 860 nM, the TGI (DU-145 prostate) was 467 nM and 29.8 nM and the TGI (OVCAR-3 ovarian) was 185 nM and 11.7 nM. For the same molecule, the TGI (NCI/ADR-RES ovarian) was 585 nM and > 33.3 µM and the TGI (NCI-H226 lung) was 481 nM and > 33.3 µM.
